Measured values published in PubChem BioAssay AID485294 (National Center for Advancing Translational Sciences (NCATS), 2010).
Among all 370,000 compounds or so, about 150 (0.041%) were called active. This list was built around the results that the source calls inconclusive (neither active nor inactive); the mix of calls is not that of the screen. Calls come from the whole dose curve; as a rule, active = well fitted inhibition curve with a large enough effect; inconclusive = small, poorly fitted or top-dose-only effect; inactive = flat fitted curve, though single readings scatter. Potencies of inconclusive entries are left out as doubtful fits.

What follows are compounds tested against Beta-lactamase (Escherichia coli (strain K12)) (UniProt P00811) (assay: qHTS Inhibitors of AmpC Beta-Lactamase (assay with detergent)). Details: AmpC hydrolysis of nitrocefin, absorbance 480 nm, 0.01% Triton; activity change, negative = inhibition: at 114 µM (top of the series).
Outline: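 20 mM phosphate pH 7.0 + 0.01% (detergent screen) or 0.0001% Triton X-100; 5.3 nM AmpC reagent; cpd preinc 15 min RT; nitrocefin (800 uM stock) to start; A480 q20 s × 4 min; Activity was normalised to no-enzyme and no-compound control wells.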
Note: nearly all actives have a fitted effect of over 25% in size.
Potency is the fitted concentration of half-maximal effect; tags give direction and shape of the fitted curve.
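Throughout, for activity change, negative = inhibition: 0% = no-compound wells and -100% = no-enzyme wells.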

UniProt P00811, sequence (P00811 whole entry, looked up): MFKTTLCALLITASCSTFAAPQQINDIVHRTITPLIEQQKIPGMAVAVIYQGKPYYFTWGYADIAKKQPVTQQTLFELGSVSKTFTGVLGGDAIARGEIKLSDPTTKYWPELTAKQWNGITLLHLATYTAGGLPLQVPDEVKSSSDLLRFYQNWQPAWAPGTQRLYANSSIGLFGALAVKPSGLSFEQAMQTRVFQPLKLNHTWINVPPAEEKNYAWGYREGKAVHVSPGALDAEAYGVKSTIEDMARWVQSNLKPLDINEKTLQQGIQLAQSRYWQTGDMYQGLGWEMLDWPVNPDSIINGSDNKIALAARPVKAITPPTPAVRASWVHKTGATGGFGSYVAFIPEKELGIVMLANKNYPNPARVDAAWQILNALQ

SMILES	activity change, negative = inhibition	Potency
CCCCN1C(=O)c2[nH]nc(-c3ccccc3O)c2C1c1cc(Br)c(O)c(OC)c1 (stereo not given)	inactive: 5.33%	
COc1ccc(-c2nc3n(n2)C(c2ccccc2Cl)C(C(N)=O)=C(C)N3)cc1 (stereo not given)		inconclusive [inhibitor, full curve, poor fit]
CN1CCN(C(=O)CCN2C(=O)S/C(=C/c3ccc(Cl)cc3)C2=O)CC1	inactive: 1.51%	
Cc1ccc2c(COC(=O)c3ccccc3OC(F)F)cc(=O)oc2c1		inconclusive [inhibitor, full curve, poor fit]
COc1ccc(C2Nc3ccccc3C(=O)N2c2ccccc2)cc1CSc1ccccn1 (stereo not given)		inconclusive [inhibitor, full curve, poor fit]
O=C(Nc1ncccc1O)c1ccc2c(c1)OCO2	inactive: -11.6%	
C/C(=N\NC(=O)c1ccccc1)c1c(C)[nH]n(-c2ccccc2)c1=O	inactive: -1.37%	
COc1cccc(CNC(=O)C(NS(=O)(=O)c2cccs2)C(C)C)c1 (stereo not given)	inactive: 17.7%	
COC(=O)c1cc2ccsc2n1CC(=O)N(C)C1CCCCC1		inconclusive [inhibitor, single point]
CCC(CC)NC(=O)CCc1nc2ccccc2c(=O)[nH]1	inactive: 4.99%	
Cc1ccccc1Nc1nc(N)nc(CSc2nc3ccccc3c(=O)n2CCCO)n1		inconclusive [inhibitor, full curve, poor fit]
Fc1ccc(-n2[nH]nnc2=S)cc1N1CCCC1		inconclusive [inhibitor, partial curve]
Cc1occc1C(=O)NNC(=S)NC(=O)COc1ccc(Cl)cc1Cl	inactive: 3.12%	
CC1CCC(NC(=O)c2ccc3c(c2)N(Cc2ccccc2F)C(=O)c2ccccc2S3=O)CC1 (stereo not given)	inactive: 14.5%	
CCOc1ccc(CCNC(=O)Cn2ncn3c(cc4sc(C)cc43)c2=O)cc1OCC	inactive: 1.05%	
CCCn1nnc(NC(=O)c2cccc(OCc3ccccc3)c2)n1	inactive: -0.39%	
CN(C)C(=O)c1cc(C(=O)c2ccccc2C(F)(F)F)c[nH]1		inconclusive [inhibitor, full curve, poor fit]
COC(=O)c1c(NC(=O)CCC(=O)O)sc(Cc2ccccc2)c1C	inactive: -0.945%	
CCOc1ccc(OCC(=O)OCc2csc(CC(=O)Nc3ccccc3C)n2)cc1		inconclusive [inhibitor, single point]
Cc1ccc(S(=O)(=O)N2CCOCC2)cc1NC(=O)COC(=O)c1cnc(Cl)c(Cl)c1		inconclusive [inhibitor, full curve, poor fit]
FC(F)(F)c1ccc(C2Nc3cccc4cccc(c34)N2)cc1		inconclusive [inhibitor, full curve, poor fit]
CN(C)c1ccc(-c2cccc(C3CC=CC4C3C(=O)N(Cc3ccccc3)C4c3ccc4ccccc4c3)c2)cc1 (stereo not given)	inactive: -9.26%	
CCCCCc1ccc(-c2ccc(/C=C/C(N)=O)cc2)nc1		inconclusive [inhibitor, partial curve, poor fit]

SMILES	activity change, negative = inhibition	Potency
COc1ccc(N2C(=O)CCC(C(=O)N3CCCCC3)C2c2ccc(OC)c(OC)c2)cc1 (stereo not given)		inconclusive [inhibitor, full curve]
CCSc1nc(C(F)(F)F)cc(=O)n1-c1ccccc1		inconclusive [inhibitor, partial curve, poor fit]
O=C(CCN=C1NS(=O)(=O)c2ccccc21)OCC(=O)c1ccccc1		inconclusive [inhibitor, partial curve, poor fit]
CC(C)[N+](C)(C)CC(O)CN(c1ccccc1)c1ccccc1 (stereo not given)		inconclusive [inhibitor, single point]
O=C(Nc1nc(-c2cccc3ccccc23)cs1)c1cnccn1	inactive: -4.44%	
CCOC(=O)C1CCN(c2ncnc3c2cnn3-c2ccccc2)CC1		inconclusive [inhibitor, single point]
N#Cc1ccc(OCC(O)CN2CCN(CC(O)COc3ccc(C#N)cc3)CC2)cc1 (stereo not given)		inconclusive [inhibitor, full curve, poor fit]
CCN(CC)C(=O)COc1cc(C)c(Cl)c(C)c1		inconclusive [inhibitor, partial curve]
CC1=C(C(=O)Nc2ccccc2)C(c2ccccn2)n2nc(CCCO)nc2N1 (stereo not given)		inconclusive [inhibitor, full curve, poor fit]
O=C(NC(=S)Nc1ccccc1Br)c1ccc2c(c1)OCO2	inactive: 8.83%	
CC(C)(C)c1ccc(NC(=O)CON=C(N)c2ccccc2)cc1		inconclusive [inhibitor, partial curve, poor fit]
CCc1cccc(NC(=O)c2cnn(-c3ccccc3)c2C)c1	inactive: 1.51%	
O=C(COc1ccc2ccccc2c1)N1CCN(C(=O)c2cccnc2)CC1	inactive: -5.87%	
Cc1ccc(NC(=O)CCNS(=O)(=O)c2ccc(Br)s2)cc1		inconclusive [inhibitor, full curve, poor fit]
Cc1ccc(C)c(NC(=O)C2CC3CCC2C3)c1 (stereo not given)		inconclusive [inhibitor, full curve, poor fit]
CCOc1ccc2[nH]c3c(NCCN(CC)CC)ncnc3c2c1	inactive: -5.29%	
CCN1C(=O)c2cccc3c(S(=O)(=O)NCc4ccco4)ccc1c23		inconclusive [inhibitor, partial curve, poor fit]
CCc1c(C)nc(SCC(=O)N2C(C)CCCC2C)[nH]c1=O (stereo not given)		inconclusive [inhibitor, single point]
CCOCCCNC(=O)C1CCC(CNS(=O)(=O)c2ccc(F)cc2)CC1 (stereo not given)		inconclusive [inhibitor, single point]
COc1ccccc1C(=O)OCC(=O)Nc1cc(S(=O)(=O)N2CCOCC2)ccc1N1CCCC1	inactive: -2.21%	
COC(=O)c1[nH]c(C)c(/C(O)=C2\C(=O)C(=O)N(CCN(C)C)C2c2ccc(C)o2)c1C (stereo not given)		inconclusive [inhibitor, partial curve, poor fit]
O=C(N/N=C/c1c[nH]c2ccccc12)c1cc(-c2ccccc2)n[nH]1		inconclusive [inhibitor, full curve, poor fit]
